The target in this experiment is T1, human M2 receptor (Homo sapiens, UniProt P08172).
T1 sequence (P08172 1-466): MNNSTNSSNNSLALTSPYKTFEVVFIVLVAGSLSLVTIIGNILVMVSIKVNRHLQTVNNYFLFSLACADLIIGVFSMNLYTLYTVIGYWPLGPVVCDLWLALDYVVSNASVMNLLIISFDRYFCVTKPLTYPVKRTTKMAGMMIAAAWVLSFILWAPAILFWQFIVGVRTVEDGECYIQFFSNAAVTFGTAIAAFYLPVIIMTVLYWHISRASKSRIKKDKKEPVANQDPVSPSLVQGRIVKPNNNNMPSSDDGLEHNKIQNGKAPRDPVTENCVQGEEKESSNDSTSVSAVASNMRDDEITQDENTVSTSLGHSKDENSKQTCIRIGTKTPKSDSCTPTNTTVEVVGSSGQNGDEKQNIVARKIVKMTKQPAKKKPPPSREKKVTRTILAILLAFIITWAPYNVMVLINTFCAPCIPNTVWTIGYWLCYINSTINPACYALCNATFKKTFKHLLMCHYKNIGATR
Particulars: boosting of the acetylcholine effect at an EC20 acetylcholine concentration; for Emax: read-out: Efficiency, M2-GIRK1/4 activation test.

Data on 23 compounds can be found in patent US20190367516A1 (Bayer Pharma Aktiengesellschaft, priority 2015, published 2019).

Structures are written as SMILES.

Take `CC[C@H](NC(=O)c1cn(-c2ccc(F)cc2F)c2nc(N3C[C@H](C(=O)OC)OC3=O)ccc2c1=O)C(F)(F)F` [Example 259, Methyl (5R)-3-[8-(2,4-difluorophenyl)-5-oxo-6-{[(2S)-1,1,1-trifluorobutan-2-yl]carbamoyl}-5,8-dihydro-1,8-naphthyridin-2-yl]-2-oxo-1,3-oxazolidine-5-carboxylate]: the Emax stood at 94.5%.
`CC[C@@H](NC(=O)c1cn(-c2ccc(F)cc2F)c2nc(N3CC(O)C3)ccc2c1=O)C(F)(F)F` [Example 261, 1-(2,4-Difluorophenyl)-7-(3-hydroxyazetidin-1-yl)-4-oxo-N-[(2R)-1,1,1-trifluorobutan-2-yl]-1,4-dihydro-1,8-naphthyridine-3-carboxamide]: the Emax amounted to 95.7%.
Same read-out and setting: next, `CC[C@@H](NC(=O)c1cn(-c2ccc(F)cc2F)c2nc(N3CC(O)(C(F)(F)F)C3)ccc2c1=O)C(F)(F)F` [Example 262, 1-(2,4-Difluorophenyl)-7-[3-hydroxy-3-(trifluoromethyl)azetidin-1-yl]-4-oxo-N-[(2R)-1,1,1-trifluorobutan-2-yl]-1,4-dihydro-1,8-naphthyridine-3-carboxamide]: 89%.
`O=C(N[C@H](C1CC1)C(F)(F)F)c1cn(-c2ccc(F)cc2F)c2nc(N3C[C@@H](O)CC3=O)ccc2c1=O` [Example 271, N-[(1R)-1-Cyclopropyl-2,2,2-trifluoroethyl]-1-(2,4-difluorophenyl)-7-[(4S)-4-hydroxy-2-oxopyrrolidin-1-yl]-4-oxo-1,4-dihydro-1,8-naphthyridine-3-carboxamide]: the Emax was found to be 91%.
The compound `CC[C@@H](NC(=O)c1cn(-c2c(F)cc(F)cc2F)c2nc(N3CCC(O)C3=O)ccc2c1=O)C(F)(F)F` (stereo partly drawn) [Example 282, 7-[3-Hydroxy-2-oxopyrrolidin-1-yl-4-oxo-N-[(2R)-1,1,1-trifluorobutan-2-yl]-4-oxo-N-trifluorobutan-2-yl]-1-(2,4,6-trifluorophenyl)-1,4-dihydro-1,8-naphthyridine-3-carboxamide] showed an Efficiency (M2-GIRK1/4 activation test) of 99.5%.
On to `CC[C@H](NC(=O)c1cn(-c2ccc(F)cc2F)c2nc(N3CC=CC3=O)ccc2c1=O)C(F)(F)F` [Example 286, 1-(2,4-Difluorophenyl)-4-oxo-7-(2-oxo-2,5-dihydro-1H-pyrrol-1-yl)-N-[(2S)-1,1,1-trifluorobutan-2-yl]-1,4-dihydro-1,8-naphthyridine-3-carboxamide], for which the Emax was 40%.
For the compound `O=C(NC(c1ccccc1Cl)C(F)(F)F)c1cn(-c2ccc(F)cc2F)c2nc(N3CC[C@H](O)C3=O)ccc2c1=O` (stereo partly drawn) [Example 298, N-[1-(2-Chlorophenyl)-2,2,2-trifluoroethyl]-1-(2,4-difluorophenyl)-7-[(3S)-3-hydroxy-2-oxopyrrolidin-1-yl]-4-oxo-1,4-dihydro-1,8-naphthyridine-3-carboxamide], the Emax was determined as 94%.
For `O=C(NC(c1ccccc1Cl)C(F)(F)F)c1cn(-c2ccc(F)cc2F)c2nc(N3CC[C@@H](O)C3=O)ccc2c1=O` (stereo partly drawn) [Example 299, N-[1-(2-Chlorophenyl)-2,2,2-trifluoroethyl]-1-(2,4-difluorophenyl)-7-[(3R)-3-hydroxy-2-oxopyrrolidin-1-yl]-4-oxo-1,4-dihydro-1,8-naphthyridine-3-carboxamide], the Emax is 92%.
Consider `O=C(NC(c1c(F)cccc1F)C(F)(F)F)c1cn(-c2ccc(F)cc2F)c2nc(N3CC[C@@H](O)C3=O)ccc2c1=O` (stereo partly drawn) [Example 300, 1-(2,4-Difluorophenyl)-N-[1-(2,6-difluorophenyl)-2,2,2-trifluoroethyl]-7-[(3R)-3-hydroxy-2-oxopyrrolidin-1-yl]-4-oxo-1,4-dihydro-1,8-naphthyridine-3-carboxamide], for which the Emax came to 95%.
As to `CC[C@@H](NC(=O)c1cn(-c2c(F)cccc2Cl)c2nc(N3C[C@@H](O)CC3=O)ccc2c1=O)C(F)(F)F` [Example 307, 1-(2-Chloro-6-fluorophenyl)-7-[(4S)-4-hydroxy-2-oxopyrrolidin-1-yl]-4-oxo-N-[(2R)-1,1,1-trifluorobutan-2-yl]-1,4-dihydro-1,8-naphthyridine-3-carboxamide], the Emax was found to be 99.5%.
The same measure, in the same setting: to `CC[C@@H](NC(=O)c1cn(-c2c(F)cccc2Cl)c2nc(N3CC[C@@H](O)C3=O)ccc2c1=O)C(F)(F)F` [Example 308, 1-(2-Chloro-6-fluorophenyl)-7-[(3R)-3-hydroxy-2-oxopyrrolidin-1-yl]-4-oxo-N-[(2R)-1,1,1-trifluorobutan-2-yl]-1,4-dihydro-1,8-naphthyridine-3-carboxamide] belongs 100%; to `CC[C@@H](NC(=O)c1cn(-c2c(F)cccc2Cl)c2nc(N3CC[C@H](O)C3=O)ccc2c1=O)C(F)(F)F` [Example 309, 1-(2-Chloro-6-fluorophenyl)-7-[(3S)-3-hydroxy-2-oxopyrrolidin-1-yl]-4-oxo-N-[(2R)-1,1,1-trifluorobutan-2-yl]-1,4-dihydro-1,8-naphthyridine-3-carboxamide], 96%; to `CC[C@@H](NC(=O)c1cn(-c2ccc(F)cc2F)c2nc(N3CCNC3=O)ccc2c1=O)C(F)(F)F` [Example 320, 1-(2,4-Difluorophenyl)-4-oxo-7-(2-oxoimidazolidin-1-yl)-N-[(2R)-1,1,1-trifluorobutan-2-yl]-1,4-dihydro-1,8-naphthyridine-3-carboxamide], 90%.
On to `CC[C@@H](NC(=O)c1cn(-c2ccc(F)cc2F)c2nc(N3CCN(C)C3=O)ccc2c1=O)C(F)(F)F` [Example 321, 1-(2,4-Difluorophenyl)-7-(3-methyl-2-oxoimidazolidin-1-yl)-4-oxo-N-[(2R)-1,1,1-trifluorobutan-2-yl]-1,4-dihydro-1,8-naphthyridine-3-carboxamide], for which the Emax amounted to 58.5%.
For the compound `C[C@@H](COC(F)(F)F)NC(=O)c1cn(-c2c(F)cc(F)cc2Cl)c2nc(N3C[C@@H](O)[C@H](O)C3)ccc2c1=O` [Example 322, 1-(2-Chloro-4,6-difluorophenyl)-7-[(3R,4R)-3,4-dihydroxypyrrolidin-1-yl]-4-oxo-N-[(2S)-1-(trifluoromethoxy)propan-2-yl]-1,4-dihydro-1,8-naphthyridine-3-carboxamide], the Emax worked out at 96%.
Turning to `O=C(N[C@@H](C1CC1)C(F)(F)F)c1cn(-c2c(F)cc(F)cc2F)c2nc(N3CCNC3=O)ccc2c1=O` [Example 323, N-[(1 S)-1-Cyclopropyl-2,2,2-trifluoroethyl]-4-oxo-7-(2-oxoimidazolidin-1-yl)-1-(2,4,6-trifluorophenyl)-1,4-dihydro-1,8-naphthyridine-3-carboxamide], the Emax turned out to be 94.6%.
With `CC[C@@H](NC(=O)c1cn(-c2c(F)cc(F)cc2F)c2nc(N3CCC(C)(O)C3)ccc2c1=O)C(F)(F)F` (stereo partly drawn) [Example 324, 7-[3-Hydroxy-3-methylpyrrolidin-1-yl]-4-oxo-N-[(2R)-1,1,1-trifluorobutan-2-yl]-1-(2,4,6-trifluorophenyl)-1,4-dihydro-1,8-naphthyridine-3-carboxamide], the Emax worked out at 97.3%.
As to `CC[C@H](NC(=O)c1cn(-c2c(F)cccc2F)c2nc(N3CCC(C)(O)C3)ccc2c1=O)C(F)(F)F` (stereo partly drawn) [Example 327, 1-(2,6-Difluorophenyl)-7-[3-hydroxy-3-methylpyrrolidin-1-yl]-4-oxo-N-[(2S)-1,1,1-trifluorobutan-2-yl]-1,4-dihydro-1,8-naphthyridine-3-carboxamide], the Emax was found to be 95.5%.
Same read-out and setting: to `CC[C@@H](NC(=O)c1cn(-c2ccc(F)cc2F)c2nc(N3CC(C)(OC)C3)ccc2c1=O)C(F)(F)F` [Example 328, 1-(2,4-Difluorophenyl)-7-(3-methoxy-3-methyazetidin-1-yl)-4-oxo-N-[(2R)-1,1,1-trifluorobutan-2-yl]-1,4-dihydro-1,8-naphthyridine-3-carboxamide] belongs 100%; to `C[C@H](NC(=O)c1cn(-c2c(F)cccc2F)c2nc(N3C[C@@H](O)CC3=O)ccc2c1=O)C(F)(F)F` [Example 329, 1-(2,6-Difluorophenyl)-7-[(4S)-4-hydroxy-2-oxopyrrolidin-1-yl]-4-oxo-N-[(2S)-1,1,1-trifluoropropan-2-yl]-1,4-dihydro-1,8-naphthyridine-3-carboxamide], 95%; to `C[C@H](NC(=O)c1cn(-c2c(F)cc(F)cc2F)c2nc(N3C[C@@H](O)CC3=O)ccc2c1=O)C(F)(F)F` [Example 330, 7-[(4S)-4-Hydroxy-2-oxopyrrolidin-1-yl]-4-oxo-1-(2,4,6-trifluorophenyl)-N-[(2S)-1,1,1-trifluoropropan-2-yl]-1,4-dihydro-1,8-naphthyridine-3-carboxamide], 93.3%.
The same measure, in the same setting: next, `CC[C@H](NC(=O)c1cn(-c2c(F)cc(F)cc2F)c2nc(N3C[C@@](C)(O)C[C@H]3C)ccc2c1=O)C(F)(F)F` [Example 331, 7-[(2R,4S)-4-Hydroxy-2,4-dimethylpyrrolidin-1-yl]-4-oxo-N-[(2S)-1,1,1-trifluorobutan-2-yl]-1-(2,4,6-trifluorophenyl)-1,4-dihydro-1,8-naphthyridine-3-carboxamide]: 96%.
For the compound `CC[C@H](NC(=O)c1cn(-c2c(F)cc(F)cc2Cl)c2nc(N3C[C@@](C)(O)C[C@H]3C)ccc2c1=O)C(F)(F)F` [Example 334, 1-(2-Chloro-4,6-difluorophenyl)-7-[(2R,4S)-4-hydroxy-2,4-dimethylpyrrolidin-1-yl]-4-oxo-N-[(2S)-1,1,1-trifluorobutan-2-yl]-1,4-dihydro-1,8-naphthyridine-3-carboxamide], the Emax is 84%.
